Among the data in PubChem BioAssay (NCATS) are max response and AC50 values, retold here.

Broadly, the AC50 is the midpoint of the concentration-response curve, whichever way the signal moves.

Values joined by “and” are separate entries in the source; they are usually repeats but may differ in a detail not shown here. Equal values may be shown once. Some of the results follow. Further columns of the screen follow, without active or inactive calls. Compounds called inactive in the main read-out are mostly missing here. Words in brackets tell the shape of the fitted curve; partial curves, single points and poor fits give uncertain potencies.

The test is described as follows: qHTS Assay for Lipid Storage Modulators (AID 1519). To be noted: Drosophila S3 cells, BODIPY lipid droplet/cell ratio, laser cytometry, cells loaded with oleic acid. Put shortly:
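Cells seeded at 5,000 per well were treated with compounds over a concentration series and loaded with oleic acid (400 uM, as added). Lipid droplet fluorescence (488 nm excitation, 500-530 nm channel) was read by laser-scanning cytometry and normalized to 20 uM Triacsin C.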
(In qHTS, concentration-response curves come from the screen itself.)

Where [1] appears, read: measured here: cell count channel max response.
[2] abbreviates: measured here: cell number channel AC50.
Setting [3] is: measured here: lipid (BODIPY) channel AC50.
Setting [4] is: measured here: lipid channel max response.
Tags tell the direction and shape of the fitted curve.

On to `CN(C)C1C(=O)C(C(N)=O)=C(O)[C@@]2(O)C(=O)C3=C(O)c4c(O)ccc(Cl)c4[C@@H](O)C3C[C@@H]12` (stereo partly specified), for which the max response is -68.3% under setting [1] and -72.6% under setting [4]. Further, the AC50 is, setting by setting: under setting [2], 35.5 µM [falling, partial curve, poor fit]; under setting [3], 11.2 µM [falling, partial curve, poor fit].
Regarding `COc1ccc(CNc2ncncc2-c2cccc(C#N)c2)c(OC)c1`, the max response worked out at 29.4% under setting [1] and 35.6% under setting [4]. Besides, the AC50 under setting [2] is 0.891 µM [rising, full curve, poor fit] and the AC50 under setting [3] was 0.891 µM [rising, full curve].
As to `O=C1c2ccccc2S(=O)(=O)N1CCCCN1CCN(c2ncccn2)CC1`, the max response by setting is: under setting [1], 72.6%; under setting [4], 95.5%. The AC50 under setting [2] is 12.6 µM [rising, partial curve] and the AC50 under setting [3] is 14.1 µM [rising, partial curve].
Take `COCCn1c(=O)c(-c2cccs2)nc2cnc(Oc3ccccc3)nc21`: the max response reads like this: under setting [1], 32.3%; under setting [4], -58.7%. The AC50 is 0.447 µM [rising, full curve] under setting [2] and 4.47 µM [falling, full curve] under setting [3].
For `Cc1cnc(CNc2nc(-c3ccccc3C(F)(F)F)nc3ccccc23)cn1`, the max response reads like this: under setting [1], 34.5%; under setting [4], 44.5%. Moreover, the half-maximal activity concentration (AC50) reads like this: under setting [2], 1.41 µM [rising, full curve]; under setting [3], 1 µM [rising, full curve].
With `COc1ccc(-n2c(=O)c(-c3ccc(Cl)cc3)nc3cncnc32)cc1`, the max response was 20.4% under setting [1] and 31.8% under setting [4]. The AC50 runs as follows: under setting [2], 1.78 µM [rising, partial curve]; under setting [3], 0.224 µM [rising, full curve].
`COc1c2ccoc2cc2oc(C)cc(=O)c12`: the max response was 40.1% under setting [1] and 57.4% under setting [4]. For the same molecule, the AC50 by setting is: under setting [2], 1.12 µM [rising, partial curve, poor fit]; under setting [3], 2 µM [rising, partial curve, poor fit].
Take `COc1cccc(Cn2c(=O)c(CCc3ccccc3)nc3cnc(N(C)C)nc32)c1`: the max response is, setting by setting: under setting [1], 28%; under setting [4], 30.5%. Besides, the half-maximal activity concentration (AC50) reads like this: under setting [2], 0.447 µM [rising, full curve]; under setting [3], 0.447 µM [rising, full curve, poor fit].
In the case of `COc1ncc2nc(-c3cn(C)c4ccccc34)c(=O)n(C)c2n1`, the max response by setting is: under setting [1], 33.5%; under setting [4], 40.4%. In addition, the AC50 runs as follows: under setting [2], 2.51 µM [rising, full curve]; under setting [3], 2.51 µM [rising, full curve].
For `COc1ccccc1CNc1cc(-c2ccccc2Cl)ncn1`, the max response reads like this: under setting [1], 21.5%; under setting [4], 23.8%. Further, the AC50 runs as follows: under setting [2], 6.31 µM [rising, single point]; under setting [3], 3.16 µM [rising, full curve, poor fit].
Turning to `CCNc1ncc2nc(CCc3ccccc3)c(=O)n(-c3ccc(OC)cc3)c2n1`, the max response under setting [1] is 28% and the max response under setting [4] turned out to be 41.2%. The AC50 runs as follows: under setting [2], 0.0158 µM [rising, full curve, poor fit]; under setting [3], 0.562 µM [rising, full curve, poor fit].
`C#CCCCCCCCCCCCCCCCC(=O)O`: the max response reads like this: under setting [1], 62.1%; under setting [4], 82.7%. Besides, the AC50 runs as follows: under setting [2], 25.1 µM [rising, partial curve, poor fit]; under setting [3], 28.2 µM [rising, partial curve].
With `N#CCCn1c(=O)c(-c2cc(F)cc(F)c2)nc2cnc(Oc3cccc(Cl)c3)nc21`, the max response runs as follows: under setting [1], 2.41%; under setting [4], -2.37%. Further, the concentration at half-maximal activity (AC50) under setting [2] is 1.78 µM [rising, partial curve, poor fit] and the AC50 under setting [3] was 1.26 µM [rising, partial curve].
For the molecule `N#Cc1ccccc1-c1ccc2ncnc(NCCN3CCOCC3)c2c1`, the max response worked out at 35.5% under setting [1] and 32.2% under setting [4]. Besides, the AC50 reads like this: under setting [2], 7.94 µM [rising, full curve]; under setting [3], 3.98 µM [rising, full curve, poor fit].
For the molecule `N#CCCn1c(=O)cnc2cnc(Nc3ccccc3)nc21`, the max response by setting is: under setting [1], 23%; under setting [4], 29.9%. Moreover, the half-maximal activity concentration (AC50) was 1 µM [rising, full curve, poor fit] under setting [2] and 0.891 µM [rising, full curve, poor fit] under setting [3].
In the case of `CC(=O)[C@H](CC(C)C)NC(=O)[C@@H](CC(C)C)NC(=O)[C@H](CC(C)C)NC(=O)OCc1ccccc1`, the max response by setting is: under setting [1], 53.1%; under setting [4], 36%. The AC50 was 14.1 µM [rising, partial curve, poor fit] under setting [2] and 2.82 µM [rising, single point] under setting [3].
Regarding `COc1cc2ccc(=O)oc2c(O)c1O`, the max response is, setting by setting: under setting [1], 62.6%; under setting [4], 71.7%. The concentration at half-maximal activity (AC50) reads like this: under setting [2], 31.6 µM [rising, partial curve]; under setting [3], 31.6 µM [rising, partial curve, poor fit].
Regarding `O=C(c1cccc(F)c1)N1CCC2(CCCN(Cc3ccncc3)C2)CC1`, the max response under setting [1] amounted to 16.1% and the max response under setting [4] was 27.9%. Moreover, the half-maximal activity concentration (AC50) is, setting by setting: under setting [2], 7.08 µM [rising, single point]; under setting [3], 7.08 µM [rising, single point].
Take `O=C1c2ccccc2C(=O)c2c(O)c(O)cc(O)c21`: the max response was 111% under setting [1] and 92% under setting [4]. Besides, the AC50 under setting [2] is 25.1 µM [rising, partial curve] and the AC50 under setting [3] was 15.8 µM [rising, partial curve].
On to `CCNc1ncc2nc(-c3ccccc3)c(=O)n(-c3ccc(OC)cc3)c2n1`, for which the max response under setting [1] was 27.6% and the max response under setting [4] is 35.2%. Also, the AC50 by setting is: under setting [2], 2.51 µM [rising, full curve, poor fit]; under setting [3], 1.41 µM [rising, full curve, poor fit].
Regarding `CN(C)c1ncc2nc(-c3ccc(Cl)cc3)c(=O)n(Cc3cccs3)c2n1`, the max response is -0.397% under setting [1] and -3.52% under setting [4]. The half-maximal activity concentration (AC50) was 3.16 µM [rising, single point] under setting [2] and 3.16 µM [rising, single point] under setting [3].
`Cc1ccccc1-c1cc(NCc2cccnc2)ncn1`: the max response came to 36.3% under setting [1] and 43.7% under setting [4]. The AC50 runs as follows: under setting [2], 6.31 µM [rising, full curve, poor fit]; under setting [3], 5.62 µM [rising, full curve].
With `CCNc1ncc2nc(-c3cccs3)c(=O)n(Cc3ccc(F)cc3)c2n1`, the max response came out at 40% under setting [1] and 26.5% under setting [4]. Moreover, the concentration at half-maximal activity (AC50) by setting is: under setting [2], 1 µM [rising, full curve, poor fit]; under setting [3], 0.251 µM [rising, full curve, poor fit].
For `COc1ccc(Oc2ncc3ncc(=O)n(CCc4ccccc4)c3n2)cc1`, the max response runs as follows: under setting [1], 23.8%; under setting [4], 27.8%. The AC50 under setting [2] is 0.447 µM [rising, full curve, poor fit] and the half-maximal activity concentration (AC50) under setting [3] was 0.447 µM [rising, full curve, poor fit].
Take `COc1cc(-c2cc(=O)c3ccccc3o2)ccc1O`: the max response was 78.1% under setting [1] and 113% under setting [4]. Also, the concentration at half-maximal activity (AC50) is 14.1 µM [rising, partial curve] under setting [2] and 17.8 µM [rising, partial curve] under setting [3].
Take `CN1C(=O)CCC1c1cccnc1` (stereo unspecified): the max response reads like this: under setting [1], 58.7% and 64.3%; under setting [4], 69% and 69.1%. Besides, the AC50 is 35.5 µM [rising, partial curve, poor fit] and 7.08 µM [falling, partial curve, poor fit] under setting [2]; 35.5 µM [rising, partial curve, poor fit] and 7.08 µM [falling, full curve] under setting [3].
`COc1ccc(CNc2ncncc2-c2ccccc2C)c(OC)c1`: the max response reads like this: under setting [1], 16.5%; under setting [4], 19.6%. The half-maximal activity concentration (AC50) reads like this: under setting [2], 6.31 µM [rising, partial curve, poor fit]; under setting [3], 5.01 µM [rising, partial curve].
Regarding `COc1cccc(Nc2ncc3nc(-c4ccc(F)cc4)c(=O)n(CCC#N)c3n2)c1`, the max response by setting is: under setting [1], 39.6%; under setting [4], -0.484%. The AC50 under setting [2] was 0.0501 µM [rising, full curve, poor fit] and the half-maximal activity concentration (AC50) under setting [3] is 0.0224 µM [rising, full curve].
As for `COc1ccc2[nH]cc(CC(N)C(=O)O)c2c1` (stereo unspecified), the max response is, setting by setting: under setting [1], 108%; under setting [4], 144%. Further, the AC50 reads like this: under setting [2], 14.1 µM [rising, partial curve]; under setting [3], 15.8 µM [rising, partial curve].
As for `c1ccc(Nc2ncncc2-c2ccc3c(c2)OCO3)cc1`, the max response came to 38.5% under setting [1] and 51.6% under setting [4]. Moreover, the AC50 is 0.355 µM [rising, full curve] under setting [2] and 0.501 µM [rising, full curve] under setting [3].
For `Cc1cnc(CNc2ncncc2-c2ccc(N(C)C)cc2)cn1`, the max response under setting [1] was determined as 47.4% and the max response under setting [4] was 57%. The concentration at half-maximal activity (AC50) is, setting by setting: under setting [2], 1.58 µM [rising, full curve]; under setting [3], 1.58 µM [rising, full curve].
For `CC(C)Oc1ccc2c(=O)c3cc(C(=O)O)ccc3oc2c1`, the max response worked out at 69.4% under setting [1] and 89.2% under setting [4]. The AC50 is 14.1 µM [rising, partial curve] under setting [2] and 14.1 µM [rising, partial curve] under setting [3].
`FC(F)(F)c1ccccc1-c1nc(NCc2cccnc2)c2ccccc2n1`: the max response is, setting by setting: under setting [1], 39%; under setting [4], 49.6%. For the same molecule, the AC50 reads like this: under setting [2], 3.98 µM [rising, full curve]; under setting [3], 3.16 µM [rising, full curve].
As for `CN1CCc2cc3c(cc2C(=O)Cc2ccc4c(c2C1)OCO4)OCO3`, the max response was 114% under setting [1] and 146% under setting [4]. Further, the concentration at half-maximal activity (AC50) is, setting by setting: under setting [2], 17.8 µM [rising, partial curve]; under setting [3], 15.8 µM [rising, partial curve].
Consider `COc1ncc2nc(-c3ccc(F)cc3)c(=O)n(C[C@H]3CCCO3)c2n1`, for which the max response by setting is: under setting [1], 23.1%; under setting [4], 29.1%. Also, the AC50 runs as follows: under setting [2], 3.55 µM [rising, partial curve, poor fit]; under setting [3], 3.16 µM [rising, partial curve].
Regarding `CN(C)C(=O)c1ccc(-c2nc(N3CCOCC3)c3ccccc3n2)cc1`, the max response is 18.4% under setting [1] and 21% under setting [4]. The AC50 is, setting by setting: under setting [2], 3.55 µM [rising, full curve, poor fit]; under setting [3], 3.98 µM [rising, single point].
For the molecule `N#Cc1cccc(-c2nc3cnc(N4CCOCC4)nc3n(Cc3ccc(F)cc3)c2=O)c1`, the max response under setting [1] was 23.7% and the max response under setting [4] worked out at 25.3%. In addition, the AC50 was 0.562 µM [rising, full curve, poor fit] under setting [2] and 0.562 µM [rising, full curve, poor fit] under setting [3].
Turning to `O=c1c(-c2ccc(Cl)cc2)nc2cnc(N3CCOCC3)nc2n1Cc1ccc(F)cc1`, the max response came out at 27.4% under setting [1] and 36% under setting [4]. In addition, the AC50 under setting [2] is 1.41 µM [rising, full curve, poor fit] and the half-maximal activity concentration (AC50) under setting [3] is 1 µM [rising, full curve].
As to `CN(C)c1ncc2nc(-c3cccs3)c(=O)n(C)c2n1`, the max response was 23.9% under setting [1] and 29.6% under setting [4]. The AC50 runs as follows: under setting [2], 3.16 µM [rising, full curve, poor fit]; under setting [3], 2.82 µM [rising, full curve, poor fit].
